Measured values published in the supplement of paper PMC4723716.
± gives the uncertainty stated by the source. Whole data set: some 9,900 compounds, median “viability index relative to DMSO control” near 1, cut for the lowest 2% near 0.85. Some of the results follow.

System: Plasmodium falciparum NF54 stage V gametocytes
Test: viability index relative to DMSO control (fraction); higher = less gametocyte killing
Conditions: 2.5 µM, incubation time: 72 h
Method in brief: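 Gametocytes (P. falciparum NF54, stage V) were treated with compound at 2.5 µM for 72 hr at 37°C in low oxygen, in serum-free medium at 0.75% gametocytemia and 1.25% hematocrit. Counts of 20–70 µm2 red particles, taken from one field per well after MitoTracker Red CMXRos with saponin, were divided by the plate mean of solvent-only wells. This ratio is the viability index.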

[1] = library set: Broad Institute DOS

| Compound | viability index [1] | viability index (library set: Broad Institute Blood Stage) |
| --- | --- | --- |
| O=C(CC1CC1)N1CC(=O)N2[C@@H](CO)[C@H](c3ccc(C#Cc4cccc(F)c4)cc3)[C@@H]2C1 | 1.05 ± 0.058 |  |
| C[C@@H]1CN([C@@H](C)CO)C(=O)Cc2cc(NS(=O)(=O)c3cccs3)ccc2O[C@@H]1CN(C)CC1CCCCC1 | 0.969 ± 0.23 |  |
| Cc1noc(C)c1S(=O)(=O)N(C)C[C@@H]1Oc2ccc(NC(=O)c3ccncc3)cc2CC(=O)N([C@@H](C)CO)C[C@@H]1C | 1.04 ± 0.026 |  |
| COCC(=O)N1[C@H](C#N)[C@H](c2ccccc2-c2cccc(C)c2)[C@@H]1CO | 1.08 ± 0.023 |  |
| Cc1ccc(S(=O)(=O)Nc2ccc3c(c2)CC(=O)N([C@@H](C)CO)C[C@@H](C)[C@H](CN(C)S(=O)(=O)c2ccccc2)O3)cc1 | 0.912 ± 0.028 |  |
| COc1cccc(C#Cc2ccc3c(c2)O[C@@H](CN(C)C(=O)CN2CCOCC2)[C@H](C)CN([C@@H](C)CO)S3(=O)=O)c1 | 1.05 ± 0.057 |  |
| CO[C@@H]1CN(C)C(=O)c2ccc(NS(=O)(=O)CC(F)(F)F)cc2OC[C@H](C)N(Cc2nccs2)C[C@H]1C | 1.04 ± 0.076 |  |
| CCS(=O)(=O)NCC[C@H]1CC[C@@H](NC(=O)Nc2cc(Cl)cc(Cl)c2)[C@@H](CO)O1 | 1.15 ± 0.059 |  |
| N#C[C@@H]1N[C@H](CO)[C@H]1c1ccc(C2=CCCC2)cc1 | 1.12 ± 0.022 |  |
| COc1cccc(C(=O)Nc2ccc3c(c2)C(=O)N(C)[C@@H]2CC[C@H](CC(=O)NCc4ccc(F)cc4)O[C@@H]2CO3)c1 | 1.1 ± 0.11 |  |
| CN1C(=O)c2cc(NC(=O)Cc3cccs3)ccc2OC[C@H]2O[C@@H](CC(=O)NCCCN3CCOCC3)CC[C@@H]21 | 1.17 ± 0.12 |  |
| O=C(Nc1ccc(F)cc1)N1CC(=O)N2[C@@H](CO)[C@H](c3ccc(-c4cccc(F)c4)cc3)[C@@H]2C1 | 1 ± 0.04 |  |
| C[C@H]1CN([C@@H](C)CO)C(=O)c2cccc(N(C)C)c2O[C@H]1CN(C)Cc1ccncc1 | 0.992 ± 0.12 |  |
| Cc1noc(C)c1S(=O)(=O)Nc1ccc2c(c1)CC(=O)N([C@H](C)CO)C[C@H](C)[C@H](CN(C)Cc1ccc(Oc3ccccc3)cc1)O2 | 0.981 ± 0.01 |  |
| Cc1noc(C)c1S(=O)(=O)N(C)C[C@@H]1OCc2cnnn2CCCC(=O)N([C@@H](C)CO)C[C@@H]1C | 1.04 ± 0.027 |  |
| C[C@H]1CN([C@@H](C)CO)C(=O)c2ccccc2-c2ccccc2CO[C@H]1CN(C)C(=O)Nc1cccc(C(F)(F)F)c1 | 0.974 ± 0.03 |  |
| C/C=C/c1ccc2c(c1)O[C@@H](CN(C)C(=O)Nc1ccc(OC)cc1)[C@H](C)CN([C@H](C)CO)S2(=O)=O | 1.12 ± 0.062 |  |
| C/C=C/c1ccc([C@H]2[C@@H](C#N)N(c3nc(CC)cs3)[C@@H]2CO)cc1 | 1.01 ± 0.041 |  |
| Cc1ccc(S(=O)(=O)Nc2ccc3c(c2)C(=O)N([C@H](C)CO)C[C@H](C)[C@H](CN(C)S(=O)(=O)c2cccs2)OCCCC[C@H](C)O3)cc1 | 1.07 ± 0.14 |  |
| COc1ccccc1NC(=O)N1CC(=O)N2[C@H](CO)[C@H](c3ccc(-c4cccc(C)c4)cc3)[C@@H]2C1 | 1.03 ± 0.086 |  |
| COc1ccc2c3c([nH]c2c1)[C@@H](CO)N(CC1CC1)C[C@]31CN(C1)C(=O)NC1CCCC1 | 1.05 ± 0.033 |  |
| O=C(Cc1ccccc1)N1C[C@H]2[C@@H](c3ccccc31)[C@H](CO)N2S(=O)(=O)c1ccccc1 | 1.01 ± 0.057 |  |
| O=C(c1ccncc1)N1CC(=O)N2[C@H](C1)[C@@H](c1ccc(-c3cccnc3)cc1)[C@@H]2CO |  | 0.891 ± 0.059 |

| Compound | viability index [1] | viability index (library set: Broad Institute Blood Stage) |
| --- | --- | --- |
| COc1cccc(S(=O)(=O)N2C[C@@H](O)COC[C@@H]3O[C@H](CC(=O)NCCCN4CCOCC4)CC[C@H]32)c1 | 1.05 ± 0.073 |  |
| O=C(CC1CC1)N1CC2(C1)[C@H](c1ccccc1)[C@@H](CO)N2S(=O)(=O)Cc1ccccc1 | 1.116 ± 0.0066 |  |
| C[C@@H](NC(=O)C[C@@H]1CC[C@@H]2[C@@H](COc3ccc(NC(=O)C4CCOCC4)cc3C(=O)N2C)O1)c1ccccc1 | 1.12 ± 0.1 |  |
| O=C(Nc1ccc(F)cc1)N1C[C@H]2[C@@H](c3ccccc31)[C@@H](CO)N2C(=O)c1ccncc1 | 1.01 ± 0.08 |  |
| CN(C)CCCNC(=O)[C@H]1[C@H](CO)[C@H]2Cn3c(ccc(-c4cccnc4)c3=O)[C@@H]1N2C(=O)CC1CC1 | 1.06 ± 0.044 |  |
| CC[C@@H]1C/C=C\C[C@H](c2ccccc2)NC(=O)CCC(=O)N1 | 1.0995 ± 0.00043 |  |
| Cc1noc(C)c1S(=O)(=O)N(C)C[C@@H]1OCCCC[C@H](C)Oc2ccc(NS(=O)(=O)c3cn(C)cn3)cc2C(=O)N([C@H](C)CO)C[C@@H]1C | 1.128 ± 0.0057 |  |
| COc1ccc(CN2[C@H](CO)[C@@H]3c4ccccc4NC[C@@H]32)cc1 | 0.972 ± 0.084 |  |
| CCCNC(=O)[C@@H]1[C@@H](CO)[C@@H]2Cn3c(cccc3=O)[C@@H]2N1Cc1cccc(F)c1 | 1.05 ± 0.025 |  |
| COc1ccc2c3c([nH]c2c1)[C@H](CO)N(C[C@]31CN(C1)C(=O)Cc1cccnc1)S(C)(=O)=O | 1.08 ± 0.04 |  |
| Cc1ccc(NC(=O)Nc2ccc3c(c2)C(=O)N(C)[C@H]2CC[C@H](CC(=O)NCC(F)(F)F)O[C@H]2CO3)cc1 | 1.11 ± 0.067 |  |
| N#C[C@H]1[C@H](c2ccccc2-c2ccccc2F)[C@@H](CO)N1C(=O)c1cccc(F)c1 | 1.09 ± 0.16 |  |
| CCCNC(=O)N1C[C@@]2(C1)CN(Cc1ccc(F)cc1)[C@@H](CO)c1[nH]c3cc(OC)ccc3c21 | 1.08 ± 0.035 |  |
| CCC(=O)NC[C@H]1[C@@H](c2ccc(-c3ccc(F)cc3)cc2)[C@@H](CO)N1C(=O)CC | 0.964 ± 0.047 |  |
| CCS(=O)(=O)Nc1ccc2c(c1)C(=O)N(C)[C@H]1CC[C@@H](CC(=O)NCCCN3CCOCC3)O[C@H]1CO2 | 1.1 ± 0.13 |  |
| COc1ccc(NC(=O)N(C)C[C@H]2Oc3ccc(NC(=O)CCN4CCOCC4)cc3C(=O)N([C@H](C)CO)C[C@H]2C)cc1 | 0.931 ± 0.086 |  |
| Cc1noc(C)c1S(=O)(=O)N(C)C[C@H]1OCCCC[C@@H](C)Oc2ccc(NS(=O)(=O)c3cn(C)cn3)cc2C(=O)N([C@@H](C)CO)C[C@H]1C | 1.14 ± 0.098 |  |
| O=C(CN1CCOCC1)N1CC[C@@H]2[C@H](CO)Nc3ccc(Br)cc3[C@@H]21 | 1.14 ± 0.039 |  |
| CCN1CC(=O)N2[C@H](C1)[C@@H](c1ccc(Br)cc1)[C@@H]2CO | 1.01 ± 0.035 |  |
| CCC(=O)Nc1ccc2c(c1)C(=O)N(C)C[C@@H](OC)[C@@H](C)CN(Cc1nccs1)[C@H](C)CO2 | 1.16 ± 0.082 |  |
| C[C@@H]1CCCCO[C@H](CN(C)C(=O)C2CCCCC2)[C@@H](C)CN([C@@H](C)CO)C(=O)c2cc(NS(=O)(=O)c3ccccc3)ccc2O1 | 1.027 ± 0.0049 |  |
| C[C@@H]1CN([C@@H](C)CO)C(=O)c2cccc(NS(=O)(=O)c3cn(C)cn3)c2O[C@@H]1CN(C)Cc1ccc(Oc2ccccc2)cc1 | 0.986 ± 0.093 |  |
| O=C(Nc1ccc2c(c1)[C@@H]1C[C@@H](CC(=O)N3CCCCC3)O[C@@H](CO)[C@@H]1O2)NC1CCCCC1 | 0.932 ± 0.19 |  |

| Compound | viability index [1] | viability index (library set: Broad Institute Blood Stage) |
| --- | --- | --- |
| COc1cccc(NC(=O)N2C[C@H](O)COC[C@H]3O[C@@H](CC(=O)N(C)C)CC[C@@H]32)c1 | 1.054 ± 0.0028 |  |
| Cc1ccc(S(=O)(=O)Nc2cccc3c2O[C@H](CN(C)C(=O)Nc2ccc(C(F)(F)F)cc2)[C@H](C)CN([C@H](C)CO)C3=O)cc1 | 1.07 ± 0.04 |  |
| CO[C@H]1CN(C)C(=O)c2cc(NC(=O)NC(C)C)ccc2OC[C@H](C)N(C(=O)CN(C)C)C[C@@H]1C | 1.12 ± 0.067 |  |
| C/C=C/c1ccc([C@@H]2[C@@H](CO)N3CCCCN(S(=O)(=O)c4ccc(OC)cc4)C[C@H]23)cc1 | 1.011 ± 0.0064 |  |
| CNC(=O)C[C@@H]1CC[C@@H]2[C@H](COC[C@H](O)CN2Cc2ccccc2F)O1 | 1.11 ± 0.016 |  |
| CO[C@H]1CN(C)C(=O)c2ccc(NC(=O)Nc3ccccc3)cc2OC[C@@H](C)N(C(=O)CC2CC2)C[C@H]1C | 1.02 ± 0.056 |  |
| C[C@@H]1CCCCO[C@@H](CN(C)C(=O)c2ccncc2)[C@@H](C)CN([C@H](C)CO)C(=O)c2cc(NC(=O)CCC(F)(F)F)ccc2O1 | 1.05 ± 0.027 |  |
| CN(C)CC(=O)N1[C@H](CO)[C@@H](c2ccccc2)C12CN(C(=O)c1ccc(F)cc1)C2 | 1.04 ± 0.024 |  |
| O=C(O)C[C@@H]1C[C@H]2c3cc(NC(=O)Cc4ccncc4)ccc3O[C@H]2[C@H](CO)O1 | 1.096 ± 0.0071 |  |
| COc1ccc(-c2ccc([C@@H]3[C@H](C#N)N(C(=O)NC(C)C)[C@H]3CO)cc2)cc1 | 1.03 ± 0.1 |  |
| O=C(Nc1ccc(F)cc1)N1C[C@@H]2[C@H](c3ccccc31)[C@@H](CO)N2C(=O)c1ccncc1 | 0.9874 ± 0.0047 |  |
| O=C(C[C@H]1C=C[C@@H](NC(=O)c2ccc3c(c2)OCO3)[C@@H](CO)O1)NC1Cc2ccccc2C1 | 0.9655 ± 0.0025 |  |
| CO[C@@H]1CN(C)C(=O)c2ccc(NC(=O)C3CC3)cc2OC[C@H](C)N(C(C)=O)C[C@H]1C | 1.13 ± 0.056 |  |
| C[C@H]1CN([C@@H](C)CO)C(=O)CCCn2nncc2CO[C@@H]1CN(C)S(=O)(=O)c1ccc(Oc2ccccc2)nc1 | 1.05 ± 0.065 |  |
| O=C(CN1CCOCC1)N1[C@@H](CO)[C@@H]2c3ccccc3NC[C@@H]21 | 1.07 ± 0.011 |  |
| Cc1ccc(S(=O)(=O)N(C)C[C@@H]2Oc3cc(C#CC4CCCC4)ccc3S(=O)(=O)N([C@H](C)CO)C[C@H]2C)cc1 | 0.766 ± 0.091 |  |
| N#C[C@H]1[C@H](c2ccccc2)[C@@H](CO)N1C(=O)c1ccc2c(c1)OCO2 | 1.03 ± 0.084 |  |
| C[C@@H]1CN([C@H](C)CO)C(=O)c2cc(NS(=O)(=O)c3ccc(Cl)cc3)ccc2O[C@@H](C)CCCCO[C@@H]1CN(C)C(=O)CCCN(C)C | 1.14 ± 0.097 |  |
| C/C=C/c1ccc([C@H]2[C@@H](CO)N(S(=O)(=O)CC)[C@@H]2CN(C)C(=O)CC)cc1 | 0.972 ± 0.042 |  |
| COC(=O)C[C@H]1CC[C@@H]2[C@H](COc3ccc(NC(=O)Nc4c(C)noc4C)cc3C(=O)N2C)O1 | 0.938 ± 0.07 |  |
| Cc1noc(C)c1S(=O)(=O)N(C)C[C@H]1OCCCC[C@@H](C)Oc2ccc(NC(=O)CCC(F)(F)F)cc2C(=O)N([C@@H](C)CO)C[C@@H]1C | 1.08 ± 0.15 |  |
| CCS(=O)(=O)NCC[C@H]1CC[C@@H](NS(=O)(=O)c2ccccc2C)[C@H](CO)O1 | 0.93 ± 0.081 |  |
| CN(C)C(=O)c1cccc(-c2ccc3c(c2)[C@@H]2[C@@H](CCN2C(=O)Nc2ccc(F)cc2)[C@H](CO)N3C)c1 | 1.11 ± 0.017 |  |
